# The other results are listed elsewhere or left out.
# Assays:
# Assay in all cases: glycan array binding signal (z-score within array); higher = stronger binding
# Settings in all cases: glycan notation: IUPAC condensed, linker removed
# [1] = target: Fuc(a1-2)Gal
# In short: (§1)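 Arrays were curated from the Consortium for Functional Glycomics database, 3228 in total, and kept only where the protein sequence was available. Binding is expressed as a within-array Z-score. This score was averaged across arrays of the same protein sequence at different concentrations or buffers and across linkers, and negative values can be read as non-binding.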
# [2] = target: Fuc(a1-2)Gal(b1-3)GalNAc
# In short: as §1
# [3] = target: Fuc(a1-2)Gal(b1-3)GalNAc(a1-3)[Fuc(a1-2)]Gal(b1-4)Glc
# In short: as §1
# [4] = target: Fuc(a1-2)Gal(b1-3)GalNAc(a1-3)[Fuc(a1-2)]Gal(b1-4)GlcNAc
# In short: as §1
# [5] = target: Fuc(a1-2)Gal(b1-3)GalNAc(b1-3)Gal
# In short: as §1
# [6] = target: Fuc(a1-2)Gal(b1-3)GalNAc(b1-3)Gal(a1-4)Gal(b1-4)Glc
# In short: as §1
# [7] = target: Fuc(a1-2)Gal(b1-3)GalNAc(b1-4)[Neu5Ac(a2-3)]Gal(b1-4)Glc
# In short: as §1
# [8] = target: Fuc(a1-2)Gal(b1-3)GlcNAc
# In short: as §1
# [9] = target: Fuc(a1-2)Gal(b1-3)GlcNAc(b1-2)Man(a1-3)[Fuc(a1-2)Gal(b1-3)GlcNAc(b1-2)Man(a1-6)]Man(b1-4)GlcNAc(b1-4)GlcNAc
# In short: as §1
# [10] = target: Fuc(a1-2)Gal(b1-3)GlcNAc(b1-2)Man(a1-3)[Fuc(a1-2)Gal(b1-3)GlcNAc(b1-2)Man(a1-6)]Man(b1-4)GlcNAc(b1-4)[Fuc(a1-6)]GlcNAc
# In short: as §1
# [11] = target: Fuc(a1-2)Gal(b1-3)GlcNAc(b1-3)Gal(b1-4)Glc
# In short: as §1
# [12] = target: Fuc(a1-2)Gal(b1-3)GlcNAc(b1-3)GalNAc
# In short: as §1
# [13] = target: Fuc(a1-2)Gal(b1-3)GlcNAc(b1-3)[Fuc(a1-2)Gal(b1-3)GlcNAc(b1-6)]GalNAc
# In short: as §1
# [14] = target: Fuc(a1-2)Gal(b1-3)GlcNAc(b1-3)[Gal(b1-4)GlcNAc(b1-6)]Gal(b1-4)Glc
# In short: as §1
# [15] = target: Fuc(a1-2)Gal(b1-3)GlcNAc(b1-3)[Neu5Ac(a2-6)Gal(b1-4)GlcNAc(b1-6)]Gal(b1-4)Glc
# In short: as §1
# [16] = target: Fuc(a1-2)Gal(b1-3)GlcNAc6S
# In short: as §1
# [17] = target: Fuc(a1-2)Gal(b1-3)[Fuc(a1-4)]GlcNAc
# In short: as §1
# [18] = target: Fuc(a1-2)Gal(b1-3)[Fuc(a1-4)]GlcNAc(b1-2)Man(a1-3)[Fuc(a1-2)Gal(b1-3)[Fuc(a1-4)]GlcNAc(b1-2)Man(a1-3)]Man(b1-4)GlcNAc(b1-4)GlcNAc
# In short: as §1
# [19] = target: Fuc(a1-2)Gal(b1-3)[Fuc(a1-4)]GlcNAc(b1-2)Man(a1-3)[Fuc(a1-2)Gal(b1-3)[Fuc(a1-4)]GlcNAc(b1-2)Man(a1-6)]Man(b1-4)GlcNAc(b1-4)[Fuc(a1-6)]GlcNAc(b1-4)[Fuc(a1-6)]GlcNAc
# In short: as §1
# [20] = target: Fuc(a1-2)Gal(b1-3)[Fuc(a1-4)]GlcNAc(b1-3)[Fuc(a1-3)[Gal(b1-4)]GlcNAc(b1-6)]Gal(b1-4)Glc
# In short: as §1
# [21] = target: Fuc(a1-2)Gal(b1-3)[Fuc(a1-4)]GlcNAc(b1-3)[Gal(b1-4)GlcNAc(b1-6)]Gal(b1-4)Glc
# In short: as §1
# [22] = target: Fuc(a1-2)Gal(b1-4)Fuc(a1-3)]GlcNAc(b1-2)Man(a1-3)[Fuc(a1-2)Gal(b1-4)[Fuc(a1-3)]GlcNAc(b1-2)Man(a1-6)]Man(b1-4)GlcNAc(b1-4)GlcNAc
# In short: as §1
# [23] = target: Fuc(a1-2)Gal(b1-4)Glc
# In short: as §1
# [24] = target: Fuc(a1-2)Gal(b1-4)Glc6S
# In short: as §1
# [25] = target: Fuc(a1-2)Gal(b1-4)GlcNAc
# In short: as §1
# [26] = target: Fuc(a1-2)Gal(b1-4)GlcNAc(b1-2)Man
# In short: as §1
# [27] = target: Fuc(a1-2)Gal(b1-4)GlcNAc(b1-2)Man(a1-3)[Fuc(a1-2)Gal(b1-4)GlcNAc(b1-2)Man(a1-6)]Man(b1-4)GlcNAc(b1-4)GlcNAc
# In short: as §1
# [28] = target: Fuc(a1-2)Gal(b1-4)GlcNAc(b1-2)Man(a1-3)[Fuc(a1-2)Gal(b1-4)GlcNAc(b1-2)Man(a1-6)]Man(b1-4)GlcNAc(b1-4)[Fuc(a1-6)]GlcNAc
# In short: as §1
# [29] = target: Fuc(a1-2)Gal(b1-4)GlcNAc(b1-2)[Fuc(a1-2)Gal(b1-4)GlcNAc(b1-4)]Man(a1-3)[Fuc(a1-2)Gal(b1-4)GlcNAc(b1-2)Man(a1-6)]Man(b1-4)GlcNAc(b1-4)GlcNAc
# In short: as §1
# [30] = target: Fuc(a1-2)Gal(b1-4)GlcNAc(b1-3)Gal(b1-4)GlcNAc
# In short: as §1
# [31] = target: Fuc(a1-2)Gal(b1-4)GlcNAc(b1-3)Gal(b1-4)GlcNAc(b1-2)Man(a1-3)[Fuc(a1-2)Gal(b1-4)GlcNAc(b1-3)Gal(b1-4)GlcNAc(b1-2)Man(a1-6)]Man(b1-4)GlcNAc(b1-4)GlcNAc
# In short: as §1
# [32] = target: Fuc(a1-2)Gal(b1-4)GlcNAc(b1-3)Gal(b1-4)GlcNAc(b1-3)Gal(b1-4)GlcNAc
# In short: as §1
# [33] = target: Fuc(a1-2)Gal(b1-4)GlcNAc(b1-3)GalNAc
# In short: as §1
# [34] = target: Fuc(a1-2)Gal(b1-4)GlcNAc(b1-3)[Fuc(a1-2)Gal(b1-4)GlcNAc(b1-6)]GalNAc
# In short: as §1
# [35] = target: Fuc(a1-2)Gal(b1-4)GlcNAc(b1-3)[Fuc(a1-3)[Gal(b1-4)]GlcNAc(b1-6)]Gal(b1-4)Glc
# In short: as §1
# [36] = target: Fuc(a1-2)Gal(b1-4)GlcNAc(b1-6)GalNAc
# In short: as §1
# [37] = target: Fuc(a1-2)Gal(b1-4)GlcNAc6S
# In short: as §1
# [38] = target: Fuc(a1-2)Gal(b1-4)[Fuc(a1-3)]GlcNAc
# In short: as §1
# [39] = target: Fuc(a1-2)Gal(b1-4)[Fuc(a1-3)]GlcNAc(b1-2)Man(a1-3)[Fuc(a1-2)Gal(b1-4)[Fuc(a1-3)]GlcNAc(b1-2)Man(a1-6)]Man(b1-4)GlcNAc(b1-4)[Fuc(a1-6)]GlcNAc
# In short: as §1
# [40] = target: Fuc(a1-2)Gal(b1-4)[Fuc(a1-3)]GlcNAc(b1-2)[Fuc(a1-2)Gal(b1-4)[Fuc(a1-3)]GlcNAc(b1-4)]Man(a1-3)[Fuc(a1-2)Gal(b1-4)[Fuc(a1-3)]GlcNAc(b1-2)Man(a1-6)]Man(b1-4)GlcNAc(b1-4)GlcNAc
# In short: as §1
# [41] = target: Fuc(a1-2)Gal(b1-4)[Fuc(a1-3)]GlcNAc(b1-3)Gal(b1-4)[Fuc(a1-3)]GlcNAc
# In short: as §1
# [42] = target: Fuc(a1-2)Gal(b1-4)[Fuc(a1-3)]GlcNAc(b1-3)Gal(b1-4)[Fuc(a1-3)]GlcNAc(b1-3)Gal(b1-4)[Fuc(a1-3)]GlcNAc
# In short: as §1
# [43] = target: Fuc(a1-2)Gal(b1-4)[Fuc(a1-3)]GlcNAc(b1-3)GalNAc
# In short: as §1
# [44] = target: Fuc(a1-2)Gal(b1-4)[Fuc(a1-3)]GlcNAc(b1-3)[Neu5Ac(a2-6)Gal(b1-4)GlcNAc(b1-6)]Gal(b1-4)Glc
# In short: as §1
# [45] = target: Fuc(a1-2)Gal3S(b1-4)GlcNAc
# In short: as §1
binder,measurement,setting,value
PkBDPgamma (Plasmodium knowlesi) (protein) SAINQIFLQNNVMDKCNDKRKRGERDWDCPTEKDVCIPDRRYQLCMMEITNLVDTDTHFHSDIIFRKSYSRRRLIYDVGGRGDLLLKKYNNVYSEDLCKDIKWSLQDFGDIIMGTDMEGIGYSLVVQNNLRSIFGTGTSAELDRKKWWNDHKKDIWKAMILSVKEKNRYSAWNCKEDVQIKVEPQIYRWIREWGRDYMSEFREQRRKLNEKCEDKLYYSTMLICTLPPCNNACKSYDEWITGKKKQWDVLSTKFSSVKKAQKIETENIARAYDILKQELNGFNEVTFENEINKRDKLYNYFCVCIVQEARKNTQENVKNVGSGVESKAPSSNPINEAVKSSSGEGKVQEDSAHRSVNEGEGKSSTNEADPGSQPGAAASGGGSGGGTGGGVDLAPQMLRELQETNAALQDVRELLRQQVKEITFLKNTVMECDACGGPLDRNLPPLAPLGPTGGWSHPQFEK,glycan array binding signal (z-score),[1],0.205
same,glycan array binding signal (z-score),[2],-0.399
same,glycan array binding signal (z-score),[3],-0.318
same,glycan array binding signal (z-score),[4],-0.282
same,glycan array binding signal (z-score),[5],-0.581
same,glycan array binding signal (z-score),[6],-0.02
same,glycan array binding signal (z-score),[7],-0.088
same,glycan array binding signal (z-score),[8],-0.138
same,glycan array binding signal (z-score),[9],0.35
same,glycan array binding signal (z-score),[10],0.201
same,glycan array binding signal (z-score),[11],-0.455
same,glycan array binding signal (z-score),[12],0.928
same,glycan array binding signal (z-score),[13],0.3
same,glycan array binding signal (z-score),[14],-0.355
same,glycan array binding signal (z-score),[15],-0.463
same,glycan array binding signal (z-score),[16],-0.604
same,glycan array binding signal (z-score),[17],0.064
same,glycan array binding signal (z-score),[18],0.339
same,glycan array binding signal (z-score),[19],-0.387
same,glycan array binding signal (z-score),[20],-0.247
same,glycan array binding signal (z-score),[21],-0.063
same,glycan array binding signal (z-score),[22],0.212
same,glycan array binding signal (z-score),[23],-0.028
same,glycan array binding signal (z-score),[24],-0.188
same,glycan array binding signal (z-score),[25],-0.067
same,glycan array binding signal (z-score),[26],0.275
same,glycan array binding signal (z-score),[27],-0.211
same,glycan array binding signal (z-score),[28],-0.084
same,glycan array binding signal (z-score),[29],-0.391
same,glycan array binding signal (z-score),[30],0.178
same,glycan array binding signal (z-score),[31],0.581
same,glycan array binding signal (z-score),[32],0.551
same,glycan array binding signal (z-score),[33],1.14
same,glycan array binding signal (z-score),[34],0.417
same,glycan array binding signal (z-score),[35],-0.305
same,glycan array binding signal (z-score),[36],-0.358
same,glycan array binding signal (z-score),[37],-0.426
same,glycan array binding signal (z-score),[38],-0.073
same,glycan array binding signal (z-score),[39],-0.35
same,glycan array binding signal (z-score),[40],0.541
same,glycan array binding signal (z-score),[41],-0.062
same,glycan array binding signal (z-score),[42],-0.273
same,glycan array binding signal (z-score),[43],-0.008
same,glycan array binding signal (z-score),[44],-0.309
same,glycan array binding signal (z-score),[45],0.281

# Source: the supplement of paper PMC8728848
